Source: US6506874

B1: IGF-I G1S-A70V displayed on phage (ligand, not shown: large carriers; small tags and cut ends)
chain: not shown
notes: Template of the alanine scan (vector pIGF-g3); also called GIS-A70V; G1S-A70V IGF-I
B2: IGF-I S1A (on G1S-A70V) displayed on phage (ligand, not shown: large carriers)
chain: not shown
notes: S1A is printed against the G1S-A70V template
B3: IGF-I S1G (on G1S-A70V) displayed on phage (ligand, not shown: large carriers; small tags and cut ends)
chain: not shown

Key:
human IGFBP-1 [1] = target: T1, human IGFBP-1 (human, UniProt P08833 26-259); assay: competitive phage ELISA, soluble IGFBP-1
T1 construct: Secreted recombinant protein
T1 sequence (looked up): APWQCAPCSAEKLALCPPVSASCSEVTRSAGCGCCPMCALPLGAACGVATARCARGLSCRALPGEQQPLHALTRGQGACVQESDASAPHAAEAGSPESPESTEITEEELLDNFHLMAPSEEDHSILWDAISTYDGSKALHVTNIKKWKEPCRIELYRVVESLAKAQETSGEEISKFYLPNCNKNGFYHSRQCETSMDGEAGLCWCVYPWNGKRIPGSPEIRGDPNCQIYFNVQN
Description: (§1) Phage particles were harvested and resuspended in PBS buffer as described in Lowman, H. B., "Phage Display of Peptide Libraries on Protein Scaffolds," in Cabilly, S. (ed.), *Combinatorial Peptide Library Protocols* (Humana Press Inc.: Totowa, N.J., 1998), pp. 249–264. Then phage concentrations were normalized to yield a maximal ELISA signal of 0.2–0.4 for each mutant (Lowman, in Cabilly, S. (ed.), supra). Threefold serial dilutions of soluble competitor were prepared on non-absorbent microtiter plates (Nunc, F, 96 wells) with binding buffer (0.5% TWEEN™ 20/PBS) containing phage at the previously-determined concentrations. The dilution range of competitor protein extended over six orders of magnitude, starting at 5 μM for IGFBP-1 and 500 nM for IGFBP-3. After blocking, the plates containing immobilized target were washed with 0.05% TWEEN™ PBS buffer and subsequently incubated with 80 μl/well of the premixed phage-competitor solutions for 1 hour at room temperature. […] Numbers in Table I represent mean ±standard deviation of individually assessed $IC50$ values.
(§2) At least two different clones of every mutant were tested.

[2] = target: T2, recombinant human IGFBP-3 (human, UniProt P17936); assay: competitive phage ELISA, soluble IGFBP-3
T2 construct: Secreted recombinant protein
Description: as §1, §2

human IGFBP-1 [3] = target: T1, human IGFBP-1; assay: competitive phage ELISA
Description: as §1, §2

T2 sequence (P17936 28-291 limits assumed): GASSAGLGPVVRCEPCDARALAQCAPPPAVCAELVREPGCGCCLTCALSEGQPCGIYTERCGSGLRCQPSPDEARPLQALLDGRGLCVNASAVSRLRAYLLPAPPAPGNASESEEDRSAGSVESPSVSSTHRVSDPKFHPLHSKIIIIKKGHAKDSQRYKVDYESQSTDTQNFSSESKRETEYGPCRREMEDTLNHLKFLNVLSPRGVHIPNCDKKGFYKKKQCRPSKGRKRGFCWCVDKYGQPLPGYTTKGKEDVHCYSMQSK

Binder | IC50 (human IGFBP-1 [1]) [nM] | IC50 [2] [nM] | fold increase in binding (human IGFBP-1 [3]) [fold]
B1 | 8.2 | 0.75 | –
B2 | 5.2 | 0.91 | ~2
B3 | 11.2 | 0.99 | –
